According to the supplement of paper PMC3334620:
Whole data set: some 33,000 sequences, median “E-score (-0.5 to 0.5)” near -0.04, cut for the highest 2% near 0.36. The list shows a part of the results.

Biological target: T1, Hmlalpha2 (UniProt P0CY09)
T1 sequence: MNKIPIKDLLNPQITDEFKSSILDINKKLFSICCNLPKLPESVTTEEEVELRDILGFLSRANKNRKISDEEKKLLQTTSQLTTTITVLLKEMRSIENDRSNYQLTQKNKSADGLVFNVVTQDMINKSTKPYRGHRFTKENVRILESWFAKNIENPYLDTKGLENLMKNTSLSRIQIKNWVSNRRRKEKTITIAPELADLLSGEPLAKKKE
Test: PBM E-score (8-mer binding enrichment) (E-score (-0.5 to 0.5)); higher = stronger / more preferred TF binding; most listed sequences are background and not binding sites
Details: protein concentration: 200 nM; construct: GST-full length
Summary of the method: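 Bound GST-tagged yeast transcription factors, applied at about 100-200 nM to double-stranded universal all-10-mer Agilent arrays, were detected with fluorescent anti-GST. Scans were normalised with masliner. A modified Wilcoxon-Mann-Whitney statistic, the E-score, was assigned to each ungapped eight-base word pooled with its reverse complement by the Universal PBM Analysis Suite.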

Sequence	PBM E-score
ATACCGGC	-0.0372
CTGTTTAA	0.11
ATAACGGG	-0.105
TTGATAAA	0.292
GACAAGTC	0.0138
ATGAATCA	-0.0009
CCGTATCA	-0.0806
GCTAATAC	0.0842
ACATTATA	0.289
CTCTTCCA	-0.168
ATTACAAG	0.466
CACGGGGA	-0.168
GTGGCCTA	-0.245
CCCTTTCA	-0.0775
AGGACGCC	-0.0061
CGTCTAAC	0.144
CTAATCAA	0.0881
CACTTTAC	0.251
ATTAAGGC	-0.07
CAGCGAAA	0.0784
GGTTACGA	-0.121
ATGGGGTG	-0.0279

Sequence	PBM E-score
AGGTCGAA	0.00227
GGGTGGCA	-0.306
GGTCCCAC	-0.24
AGACGCGC	0.0259
CCAGGCGG	-0.0584
AAGAATGT	0.16
CGACCCGA	-0.28
AGGCGGTA	-0.0513
CAGGTAAG	-0.0532
CGAGCTCA	-0.242
CCATAAAC	-0.158
GTAAGCGA	0.12
GAATGACA	0.257
TCCGAGAA	-0.0131
AATAGCGT	0.147
CATACACG	0.398
CTGCAGGA	-0.0889
AGCGTTTA	0.186
CAACGCTG	0.0213
TGCCTAAA	-0.079
CACGCATA	0.115
GCTAAAAA	-0.00065

Sequence	PBM E-score
AGAATCTG	-0.187
ACGTCTTA	0.107
CAGAGTAC	0.0797
GACGGGCC	-0.23
TAACTAAA	0.151
CGCTGCCG	-0.168
CCGCGGCC	-0.192
GCGCCGCA	-0.0951
ATTAGGTA	0.269
GCGCATAA	-0.111
ATCTCCCA	-0.211
GCATAGGA	-0.0777
ATCTTACC	-0.167
ACTAGGTG	-0.177
GTCCGCTA	0.0217
GAAGTGAA	0.00643
AGCGCCCA	-0.344
CCGGTCAG	-0.289
GTCCATAA	-0.114
ATCCGGTC	-0.273
AATATCCT	-0.0463
GCCTAGCA	-0.313

Sequence	PBM E-score
ACTGCAAC	-0.143
CATCTAAA	-0.0362
GACATGTA	0.423
AAATGCCT	-0.0309
GGGGCAAA	-0.292
GCCGAAGA	-0.0269
ACCACAAC	0.158
ATTTAGCG	-0.0325
ACTGCATA	0.14
GACTGCTA	-0.28
CCGCCCAG	-0.274
CTGGGCTC	-0.15
CAATGGAC	0.0473
CTCGGGCC	-0.24
ACTTAACT	0.159
CGAGTCCA	-0.263
CCCAGACC	-0.176
GAGCGAAA	-0.0366
GACCGTGC	-0.143
AAGGGTGA	-0.238
